In PubChem BioAssay AID1345083 (National Center for Advancing Translational Sciences (NCATS), 2018):
“And” between values parts separate entries of the source, which are not always exact repeats. Equal entries are not always repeated. Screen size: about 94,000 compounds; about 6,200 (6.6%) were called active. The inconclusive results got no clear call from the source; some entries with a clear call stand among them for comparison. Calls follow the shape of the dose curve; as a rule, active = well fitted inhibition curve with a large enough effect; inconclusive = small, poorly fitted or top-dose-only effect; inactive = flat fitted curve, though single readings scatter. Where the call is inconclusive, the potency comes from a doubtful curve fit.

Experiment: Cytotoxic Profiling in HEK 293 Cell Line of Diverse Libraries Using Quantitative High-Throughput Screening; also: nearly all actives have a fitted effect of over 60% in size
Conditions: HEK 293 viability, ATP luminescence (CellTiter-Glo), 48-72 h; series mostly up to 115 µM
Procedure, shortened: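 ATP-coupled CellTiter-Glo luminescence served as viability read-out, recorded 10 min after reagent addition at room temperature. HEK 293 cells, 250 cells/well, had been incubated with pintool-transferred compound for 48 or 72 hr at 37 degree Celsius.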
Potency is read from the fitted curve at half-maximal effect; tags tell the direction and shape of the fitted curve.

SMILES | Potency
O=C1CC2(CCN(C(=O)C3CCCN3C(=O)NC3CCCC3)CC2)Oc2ccccc2N1 (centres undefined) | inactive
CC(NC(=O)c1cccc2c1CCN2C(=O)Nc1ccccc1)c1cccnc1 (centres undefined) | inconclusive: 50.1 µM [inhibitor, partial curve, poor fit]
Clc1ccc(C2CN(c3cc(C4CC4)ncn3)CCO2)cc1 (centres undefined) | active: 25.1 µM
Cc1nc(CCNC(=O)Cc2ccsc2)no1 | inactive
CN(C)c1ccc(CN2CC(Oc3ccc(F)c(F)c3)C2)cc1 | inconclusive: 112 µM [inhibitor, single point]
COc1ccccc1Nc1ccnc(N2CCC[C@H]2C(=O)NCc2cccs2)n1 | inconclusive: 50.1 µM [inhibitor, partial curve]
CCN(CC)S(=O)(=O)N(C)CC1CCCN(CCc2ccccc2OC)C1 (centres undefined) | inconclusive: 89.1 µM [inhibitor, single point]
CCOc1ccc(CCNC(=O)Cn2ccn3nc(-c4ccccc4)c(CO)c3c2=O)cc1OCC | inconclusive: 39.8 µM [inhibitor, partial curve, poor fit]
CCc1ccc(NC(=O)N2CCCC(c3noc(COc4ccccc4F)n3)C2)cc1 (centres undefined) | inconclusive: 79.4 µM [inhibitor, partial curve, poor fit]
CN1CCCC1CCNc1nccc(-c2cnn(-c3ccccc3F)c2)n1 (centres undefined) | inconclusive: 89.1 µM [inhibitor, single point]
O=C1NC2(CCN(C(=O)c3ccc(Cl)cc3)CC2)Oc2ccccc21 | inactive
Cc1ccccc1CNC(=O)c1ccc2c(c1)C(O)CCCCCN2C (centres undefined) | inconclusive: 63.1 µM [inhibitor, partial curve, poor fit]
O=C(c1ccccn1)N1CCCC(c2nc(C3CCOCC3)no2)C1 (centres undefined) | inactive
Cc1cnc(-c2cccnc2)n1CC1CCN(S(=O)(=O)Cc2ccccc2)CC1 | inconclusive: 35.5 µM [inhibitor, partial curve]
Cc1cnc(CC2CCCN(C(=O)NC(C)(C)C)C2)n1Cc1ccc(F)cc1 (centres undefined) | inconclusive: 50.1 µM [inhibitor, partial curve, poor fit]
COc1cccc(CC(=O)Nc2ccc3c(c2)CN(Cc2ccccc2F)C(=O)C(C)O3)c1 (centres undefined) | inconclusive: 89.1 µM [inhibitor, single point]
CCNC(=O)N[C@@H]1C=C[C@@H](c2c(C)nn(-c3ccc(OC)cc3)c2C)C1 | inconclusive: 44.7 µM [inhibitor, partial curve, poor fit]
CC(C)CNC(=O)C1c2ccccc2C(=O)N(Cc2ccccc2)C12CCCC2 (centres undefined) | inconclusive: 79.4 µM [inhibitor, partial curve, poor fit]
CC1=C(C(=O)OC(C)C)C(c2ccccc2F)N2C(CC(=O)N3CCCC3)=CSC2=N1 (centres undefined) | inactive
O=C(NCc1ccccc1Cl)C1CCCN(Cc2cccc(-c3ccsc3)c2)C1 (centres undefined) | active: 22.4 µM
CCc1ccc(CNC(=O)[C@H]2CCC[C@H]2NC(=O)c2ccc(OC)cc2)cc1 | inactive
C[S+](=O)([O-])c1ccc(-c2nnc3ccc(C(=O)NC4CC4)cn23)cc1 | inactive

SMILES | Potency
Cn1cnc(S(=O)(=O)N2CCC3(CC2)CC(Cc2ccccc2)CCO3)c1 (centres undefined) | inconclusive: 89.1 µM [inhibitor, single point]
O=C(Cc1cccc(Cl)c1)N1CCCC(C(=O)N2CCC(N3Cc4cccn4C3=O)CC2)C1 (centres undefined) | inactive
CCCS(=O)(=O)N1CCC(N2C(=O)[C@H](OC)[C@@H]2c2ccncc2)CC1 | inactive
Cc1cccc(NC(=O)N2CCc3c(C(=O)N4CCN(C)CC4)cccc32)c1 | inconclusive: 35.5 µM [inhibitor, partial curve, poor fit]
COc1ccc(CCNC(=O)c2cc(-c3cccc(C(F)(F)F)c3)c3nncn3n2)cc1 | inconclusive: 63.1 µM [inhibitor, partial curve, poor fit]
CCOc1ccc(CC(=O)N2CCC[C@H]2c2nc(-c3ccc(OC)cc3)no2)cc1 | inconclusive: 50.1 µM [inhibitor, partial curve, poor fit]
COc1ccc(-c2nnc3n2CCN(C(C)=O)C3)cc1 | inconclusive: 112 µM [inhibitor, single point]
COc1cccc(C(=O)NC2CCN(C(=O)c3ccc(-c4ncccc4C#N)cc3)CC2)c1 | inconclusive: 79.4 µM [inhibitor, partial curve, poor fit]
CCOCCNC(=O)c1nc2cccnc2n(CCc2ccccc2)c1=O | inconclusive: 100 µM [inhibitor, single point]
COc1ccc(OC)c(S(=O)(=O)N2CC(N3CC(C(=O)N4CCCC4)CC3=O)C2)c1 (centres undefined) | inactive
Cn1ncc2c(C(=O)NCc3ccccn3)cc(-c3ccccc3F)nc21 | inconclusive: 79.4 µM [inhibitor, partial curve, poor fit]
CC(=O)Nc1ccc([C@H]2OCC(=O)N(Cc3ccc(F)cc3)[C@@H]2CO)cc1 | inactive
CN1CC2(CCN(C(=O)NCCc3ccccc3)CC2)CC1C(=O)N1CCOCC1 (centres undefined) | inactive
CN(Cc1ccccc1C(F)(F)F)C(=O)c1ccc(C(F)(F)F)cc1 | inconclusive: 79.4 µM [inhibitor, partial curve, poor fit]
COCc1nc(C2CCN(S(=O)(=O)c3cccc(OC)c3)C2)no1 (centres undefined) | inconclusive: 89.1 µM [inhibitor, single point]
O=C(CCC[C@@H]1[C@H]2CCCN3CCC[C@@H](CN1Cc1ccccc1)[C@@H]23)N1CCOCC1 | inconclusive: 63.1 µM [inhibitor, partial curve, poor fit]
O=C1CC(C(=O)O)C2(CCN(C(=O)c3ccc4c(c3)OCO4)CC2)N1 (centres undefined) | inactive
O=C(c1cc(F)ccc1F)N1CCCC2(C1)NC(=O)N(Cc1cccc(Cl)c1)C2=O (centres undefined) | inconclusive: 50.1 µM [inhibitor, partial curve, poor fit]
COCC(=O)N1CCCC(N2C(=O)c3c(c(C)nn3-c3ccccc3)C2C(C)C)C1 (centres undefined) | inconclusive: 89.1 µM [inhibitor, single point]
O=C(NCc1c[nH]c2ncccc12)c1cccnc1 | inactive
COc1cccc(-c2nnnn2[C@H]2CO[C@H]3[C@@H]2OC[C@@H]3NC(=O)c2ccccc2)c1 | inconclusive: 70.8 µM [inhibitor, partial curve, poor fit]
CNC(=O)c1cc(-c2cccc(F)c2)nc2c1cnn2C | inconclusive: 112 µM [inhibitor, partial curve, poor fit]

SMILES | Potency
COc1cc(C(=O)NC2CCN(c3cc(-c4cccs4)[nH]n3)C2)cc(OC)c1OC (centres undefined) | inconclusive: 70.8 µM [inhibitor, single point]
COc1cccc(NC(=O)c2cc3c(N(C)Cc4ccccc4)nc(C)cn3n2)c1 | inactive
O=C(CCc1nc2ccccc2[nH]c1=O)N1CCN(CCn2cncn2)CC1 | inactive
O=C(NCC1CCCCC1)c1cc2n(n1)CC(c1ccc(Cl)cc1)OC2 (centres undefined) | inconclusive: 50.1 µM [inhibitor, partial curve, poor fit]
COc1cccc(-c2cccc(C(=O)N3CCN(C(=O)c4ccc(C(F)(F)F)cc4)CC3)c2)c1 | inconclusive: 28.2 µM [inhibitor, partial curve, poor fit]
O=C(Nc1ccccc1Cl)C1CN(C2CCCCC2)C(=O)N1 (centres undefined) | inactive
COC[C@@H]1CN(C(=O)c2occc2C)C[C@H]1c1ccncc1 | inconclusive: 100 µM [inhibitor, single point]
Cc1cc(C(=O)N2CC[C@H]3CC(=O)N(Cc4ccc5c(c4)OCO5)CC[C@H]3C2)no1 | inconclusive: 126 µM [inhibitor, single point]
COc1ccc(S(=O)(=O)N2CCCC(Cn3c(C)nc4cccnc43)C2)cc1 (centres undefined) | inconclusive: 50.1 µM [inhibitor, partial curve, poor fit]
Cc1ccccc1CNC[C@H]1Cn2cc(-c3ccccc3)nc2CO1 | active: 100 µM
O=C(NC1CC1)c1cc(-c2ccccc2F)cc2c1OCCN2Cc1cccnc1 | active: 100 µM
O=C(c1nnn2c1COC(c1ccc(Cl)cc1)C2)N1CCN(C(=O)c2c(F)cccc2F)CC1 (centres undefined) | inconclusive: 44.7 µM [inhibitor, partial curve, poor fit]
O=C(NC1CCN(Cc2cccc(-c3cccs3)c2)CC1)C1CC1 | inconclusive: 50.1 µM [inhibitor, partial curve, poor fit] and inconclusive: 39.8 µM [inhibitor, partial curve, poor fit]
Cn1ccc2c(C(=O)NCc3cccnc3)nc(-c3cccnc3)cc21 | inactive
Cc1ccc(C2Cn3nnc(C(=O)N4CCC(C(=O)Nc5ccc(F)c(C)c5)CC4)c3CO2)cc1 (centres undefined) | inactive
COc1ccc2[nH]c(C[C@@H]3C[C@@H](C(C)C)[C@H](CN(Cc4ccccn4)Cc4ccccn4)C=C3C)nc2n1 | inconclusive: 7.08 µM [inhibitor, full curve, poor fit]
Cc1ccc(S(=O)(=O)N2CCCN(C)c3ccccc32)cc1F | inconclusive: 39.8 µM [inhibitor, partial curve, poor fit]
CCNC(=O)N[C@H]1C[C@@H](Cc2cc(-c3ccccc3)on2)C1(C)C | inconclusive: 79.4 µM [inhibitor, partial curve]
COc1cccc(-c2nc3cc(SC)ccc3cc2CN(C)Cc2ccno2)c1 | inconclusive: 79.4 µM [inhibitor, partial curve, poor fit]
COc1ccccc1CNC(=O)C[C@@H]1CCNC[C@@H]1Cc1cc(CSc2ccccc2)on1 | inconclusive: 56.2 µM [inhibitor, partial curve, poor fit]
